Reference: the supplement of paper PMC4604168 (melanoma cell lines)
The other results are listed elsewhere or left out. Single values are uncertain, as repeats are few or missing.

These compounds were tested on A2058 (assay: cell count relative to DMSO control; melanoma cells; higher = more viable cells). Settings: library dose: low library concentration; 72 h.
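Further: cell number obtained by counting DAPI-stained nuclei in high-throughput microscope images with image analysis software, screen run in 1,536-well plates.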

**Q.** With `COc1ccc(C2=N[C@@H](c3ccc(Cl)cc3)[C@@H](c3ccc(Cl)cc3)N2C(=O)N2CCNC(=O)C2)c(OC(C)C)c1` [Nutlin-3] + C=C(c1ccc(C(=O)O)cc1)c1cc2c(cc1C)C(C)(C)CCC2(C)C [Bexarotene] (first compound 0.1 µM, partner dose 2 µM) as the compound, how does the cell count read?
**A.** The cell count was 83.4%.

**Q.** How did the cell count turn out when `Cc1cc(Nc2cc(N3CCN(C)CC3)nc(/C=C/c3ccccc3)n2)n[nH]1` + Cc1nc(Nc2ncc(C(=O)Nc3c(C)cccc3Cl)s2)cc(N2CCN(CCO)CC2)n1 [dasatanib] (first compound 0.04 µM, partner dose 0.004 µM) was run?
**A.** Its cell count is 74.4%.

**Q.** How did the cell count turn out when `Cc1cn(-c2cc(NC(=O)c3ccc(C)c(Nc4nccc(-c5cccnc5)n4)c3)cc(C(F)(F)F)c2)cn1` [nilotinib] + CC(=O)O[C@@]12CO[C@@H]1C[C@H](O)[C@@]1(C)C(=O)[C@H](O)C3=C(C)[C@@H](OC(=O)[C@H](O)[C@@H](NC(=O)OC(C)(C)C)c4ccccc4)C[C@@](O)([C@@H](OC(=O)c4ccccc4)[C@H]21)C3(C)C [Docetaxel] (first compound 0.2 µM, partner dose 0.0001 µM) was run?
**A.** The cell count was 28.6%.

**Q.** Which cell count does the source give for `Cn1c(=O)n(-c2ccc(C(C)(C)C#N)cc2)c2c3cc(-c4cnc5ccccc5c4)ccc3ncc21` + CO[C@H]1C[C@@H]2CC[C@@H](C)[C@@](O)(O2)C(=O)C(=O)N2CCCC[C@H]2C(=O)O[C@H]([C@H](C)C[C@@H]2CC[C@@H](OCCO)[C@H](OC)C2)CC(=O)[C@H](C)/C=C(\C)[C@@H](O)[C@@H](OC)C(=O)[C@H](C)C[C@H](C)/C=C/C=C/C=C/1C [everolimus] (first compound 0.004 µM, partner dose 0.02 µM) here?
**A.** Its cell count is 47.5%.

**Q.** For `COc1ccc(C2=N[C@@H](c3ccc(Cl)cc3)[C@@H](c3ccc(Cl)cc3)N2C(=O)N2CCNC(=O)C2)c(OC(C)C)c1` [Nutlin-3] + C[C@]1(c2nc3c(C(N)=O)cccc3[nH]2)CCCN1 [Veliparib] (first compound 0.1 µM, partner dose 1.4 µM), which cell count is on record?
**A.** Its cell count is 93%.

**Q.** Which cell count does the source give for `COc1ccc(C2=N[C@@H](c3ccc(Cl)cc3)[C@@H](c3ccc(Cl)cc3)N2C(=O)N2CCNC(=O)C2)c(OC(C)C)c1` [Nutlin-3] + Nc1cccc2c1CN(C1CCC(=O)NC1=O)C2=O [lenalidomide] (first compound 0.1 µM, partner dose 1 µM) here?
**A.** The cell count was 102%.

**Q.** Which cell count does the source give for `CC(C)C[C@H](NC(=O)[C@H](Cc1ccccc1)NC(=O)c1cnccn1)B(O)O` [Bortezomib] + O=C(O)[C@@H]1[O][Sb](=[O])([O][Sb]2(=[O])[O][C@H]([C@H](O)CO)[C@H](O)[C@H](C(=O)O)[O]2)[O][C@H]([C@H](O)CO)[C@@H]1O [stibogluconate] (first compound 0.001 µM, partner dose 2 µM) here?
**A.** Its cell count is 72.1%.

**Q.** For `COc1ccc(C2=N[C@@H](c3ccc(Cl)cc3)[C@@H](c3ccc(Cl)cc3)N2C(=O)N2CCNC(=O)C2)c(OC(C)C)c1` [Nutlin-3] + Nc1ccn([C@@H]2O[C@H](CO)[C@@H](O)C2(F)F)c(=O)n1 [gemcitabine] (first compound 0.1 µM, partner dose 0.0004 µM), which cell count is on record?
**A.** The cell count was 93.9%.

**Q.** For `Cc1cc(Nc2cc(N3CCN(C)CC3)nc(/C=C/c3ccccc3)n2)n[nH]1` + CCCS(=O)(=O)Nc1ccc(F)c(C(=O)c2c[nH]c3ncc(Cl)cc23)c1F [PLX4720] (first compound 0.04 µM, partner dose 0.08 µM), which cell count is on record?
**A.** Its cell count is 97.3%.

**Q.** Which cell count does the source give for `Cn1c(=O)n(-c2ccc(C(C)(C)C#N)cc2)c2c3cc(-c4cnc5ccccc5c4)ccc3ncc21` + COc1ccc(Cl)c(Nc2nc3ccccc3nc2NS(=O)(=O)c2cccc(NC(=O)C(C)(C)N)c2)c1 [XL147] (first compound 0.004 µM, partner dose 0.8 µM) here?
**A.** The cell count was 84.7%.

**Q.** With `Cc1cn(-c2cc(NC(=O)c3ccc(C)c(Nc4nccc(-c5cccnc5)n4)c3)cc(C(F)(F)F)c2)cn1` [nilotinib] + NC(=O)c1ccc(N(C(N)=O)c2c(F)cccc2F)nc1-c1ccc(F)cc1F [VX702] (first compound 0.2 µM, partner dose 0.4 µM) as the compound, how does the cell count read?
**A.** Its cell count is 102%.

**Q.** How did the cell count turn out when `Cc1cn(-c2cc(NC(=O)c3ccc(C)c(Nc4nccc(-c5cccnc5)n4)c3)cc(C(F)(F)F)c2)cn1` [nilotinib] + O=C(O)c1ccc2c(c1)nc(Nc1cccc(Cl)c1)c1ccncc12 [CX4945] (first compound 0.2 µM, partner dose 0.4 µM) was run?
**A.** Its cell count is 101%.
